The target in experiment [1] is l-afadin (endogenous, mouse brain) (mouse (endogenous in brain)) (UniProt Q9QZQ1). Kind of experiment: co-IP; endogenous proteins; light membrane fraction of P21 mouse brain in 0.25% DDM, 100 mM NaCl, 20 mM Hepes pH 7.4, 5 mM EDTA, 5 mM EGTA; l-afadin pAb or l/s-afadin pAb coupled to protein A magnetic beads, overnight, 4 °C; blot with the MAGUIN pAb.
The target of experiment [2] is EGFP-tagged rat l-afadin (rat) (UniProt O35889). Put plainly: co-IP; HEK293 cells co-expressing EGFP-tagged afadin variants and V5-tagged MAGUIN variants; lysate in 0.25% DDM in buffer A; GFP pAb and protein-G Sepharose, 4 °C; blot with the MAGUIN pAb or V5 mAb.
The target of experiment [3] is T1, EGFP-tagged s-afadin mutant lacking the RA domains (aa 350-1663) (rat) (UniProt O35889).
T1 sequence: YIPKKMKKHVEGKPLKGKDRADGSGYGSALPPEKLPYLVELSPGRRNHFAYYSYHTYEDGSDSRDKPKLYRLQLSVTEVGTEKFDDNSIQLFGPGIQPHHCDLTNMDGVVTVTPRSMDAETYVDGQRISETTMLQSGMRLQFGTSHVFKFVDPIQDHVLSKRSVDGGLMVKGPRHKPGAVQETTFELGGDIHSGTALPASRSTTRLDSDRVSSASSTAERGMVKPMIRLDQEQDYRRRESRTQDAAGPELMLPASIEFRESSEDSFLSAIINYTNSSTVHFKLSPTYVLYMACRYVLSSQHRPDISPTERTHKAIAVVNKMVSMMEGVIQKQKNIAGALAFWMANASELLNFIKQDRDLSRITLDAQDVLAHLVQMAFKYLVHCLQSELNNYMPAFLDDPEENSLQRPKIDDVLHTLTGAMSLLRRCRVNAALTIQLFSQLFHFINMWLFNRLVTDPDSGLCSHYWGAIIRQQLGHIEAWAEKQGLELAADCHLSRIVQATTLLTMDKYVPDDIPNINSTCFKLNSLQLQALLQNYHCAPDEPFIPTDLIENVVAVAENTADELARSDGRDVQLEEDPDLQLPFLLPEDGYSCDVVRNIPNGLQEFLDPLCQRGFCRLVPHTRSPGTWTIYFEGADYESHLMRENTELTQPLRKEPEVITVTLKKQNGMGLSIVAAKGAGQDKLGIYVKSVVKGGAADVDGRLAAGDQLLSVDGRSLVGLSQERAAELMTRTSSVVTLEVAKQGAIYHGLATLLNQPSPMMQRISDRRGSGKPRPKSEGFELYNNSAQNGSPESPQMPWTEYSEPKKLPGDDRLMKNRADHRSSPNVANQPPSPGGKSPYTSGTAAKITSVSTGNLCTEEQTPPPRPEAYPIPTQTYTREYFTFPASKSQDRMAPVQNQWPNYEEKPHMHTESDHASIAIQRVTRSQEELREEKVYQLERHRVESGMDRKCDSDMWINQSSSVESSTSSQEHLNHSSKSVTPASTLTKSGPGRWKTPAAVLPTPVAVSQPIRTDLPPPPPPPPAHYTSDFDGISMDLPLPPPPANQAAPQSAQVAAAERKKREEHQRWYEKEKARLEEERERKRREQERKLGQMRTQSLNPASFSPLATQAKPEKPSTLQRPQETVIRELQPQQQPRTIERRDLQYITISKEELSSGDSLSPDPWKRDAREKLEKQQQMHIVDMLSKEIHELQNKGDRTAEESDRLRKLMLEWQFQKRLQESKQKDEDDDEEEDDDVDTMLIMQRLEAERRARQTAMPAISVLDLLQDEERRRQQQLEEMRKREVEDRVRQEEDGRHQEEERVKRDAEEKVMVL
The description is as above.

The chains behind the UniProt entries cited, without tags or fusion partners. Where a name states a change or a piece, a line headed by the entry shows the natural chain unless it says otherwise. A line that says so, or that is headed by a name, gives the form on record, which may keep a tag or linker.
l-afadin (endogenous, mouse brain) (mouse (endogenous in brain)) (Q9QZQ1, form named): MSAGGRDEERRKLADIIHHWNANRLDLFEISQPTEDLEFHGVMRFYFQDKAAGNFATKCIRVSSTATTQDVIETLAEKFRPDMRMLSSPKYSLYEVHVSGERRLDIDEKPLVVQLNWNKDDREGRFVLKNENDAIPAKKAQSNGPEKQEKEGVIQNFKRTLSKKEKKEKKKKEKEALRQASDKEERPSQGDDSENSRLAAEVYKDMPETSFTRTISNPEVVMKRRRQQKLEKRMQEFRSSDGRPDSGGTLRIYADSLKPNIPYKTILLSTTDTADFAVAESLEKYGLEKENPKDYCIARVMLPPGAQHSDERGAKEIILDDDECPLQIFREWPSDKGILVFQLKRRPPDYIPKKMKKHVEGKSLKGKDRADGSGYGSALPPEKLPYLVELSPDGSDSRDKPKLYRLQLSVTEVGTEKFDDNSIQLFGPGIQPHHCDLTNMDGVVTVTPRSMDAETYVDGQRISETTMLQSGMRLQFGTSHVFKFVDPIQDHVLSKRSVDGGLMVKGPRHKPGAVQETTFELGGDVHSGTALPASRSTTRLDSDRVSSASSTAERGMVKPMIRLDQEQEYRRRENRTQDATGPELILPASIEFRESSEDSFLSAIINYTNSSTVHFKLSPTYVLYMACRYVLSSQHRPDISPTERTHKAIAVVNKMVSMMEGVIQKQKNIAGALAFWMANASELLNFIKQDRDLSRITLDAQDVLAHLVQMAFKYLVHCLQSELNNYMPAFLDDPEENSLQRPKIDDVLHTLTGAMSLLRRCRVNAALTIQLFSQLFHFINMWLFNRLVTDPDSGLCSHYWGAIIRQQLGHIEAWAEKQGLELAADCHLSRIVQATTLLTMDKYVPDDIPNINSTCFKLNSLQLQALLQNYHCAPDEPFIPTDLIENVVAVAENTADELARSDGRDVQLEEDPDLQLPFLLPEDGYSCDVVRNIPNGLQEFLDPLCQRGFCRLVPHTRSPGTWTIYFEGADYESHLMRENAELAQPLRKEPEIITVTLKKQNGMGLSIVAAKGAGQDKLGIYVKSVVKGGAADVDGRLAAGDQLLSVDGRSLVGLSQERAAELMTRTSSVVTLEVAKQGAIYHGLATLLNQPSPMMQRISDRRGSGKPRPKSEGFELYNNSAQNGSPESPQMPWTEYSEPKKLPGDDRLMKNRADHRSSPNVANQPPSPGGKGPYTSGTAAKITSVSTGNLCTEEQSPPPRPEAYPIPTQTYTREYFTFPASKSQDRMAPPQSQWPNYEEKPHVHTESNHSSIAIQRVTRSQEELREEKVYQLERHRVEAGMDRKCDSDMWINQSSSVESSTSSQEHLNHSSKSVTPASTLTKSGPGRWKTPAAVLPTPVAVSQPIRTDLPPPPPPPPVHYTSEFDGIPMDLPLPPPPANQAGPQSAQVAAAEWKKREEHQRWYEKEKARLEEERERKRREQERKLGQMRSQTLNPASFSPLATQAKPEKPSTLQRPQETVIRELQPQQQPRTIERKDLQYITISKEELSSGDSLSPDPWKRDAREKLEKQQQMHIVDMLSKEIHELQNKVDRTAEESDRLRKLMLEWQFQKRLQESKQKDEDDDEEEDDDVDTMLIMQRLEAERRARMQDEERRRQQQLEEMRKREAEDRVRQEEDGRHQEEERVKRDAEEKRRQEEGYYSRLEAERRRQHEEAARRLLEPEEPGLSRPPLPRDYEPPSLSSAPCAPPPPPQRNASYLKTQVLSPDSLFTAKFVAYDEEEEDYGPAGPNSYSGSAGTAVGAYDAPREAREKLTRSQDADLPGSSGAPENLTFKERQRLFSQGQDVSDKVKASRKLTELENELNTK

Experiment [4] addresses EGFP-tagged rat s-afadin (rat) (UniProt O35889). The experiment is described as above.

These are yes or no findings as the source states them, for the method shown. Binding seen in cells or lysates may run through a third protein. Some binding calls cover weakened binding; strength is not graded here. For some of these results: Where a sequence is shown, tags or fusion partners need not be part of it.

As for “MAGUIN-1 (endogenous, mouse brain) (from UniProt Q80YA9-1 1-1032)”, in experiment [1], the binding entry is listed as “binds”.
For the substance “V5-tagged full-length MAGUIN-1 (from UniProt Q80YA9-1 1-1032)”, the binding entry in experiment [2] is given as “binds weakly”; in experiment [3], “no binding”; in experiment [4], “binds”.
